Source: PubChem BioAssay (NCI)
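How tested: cells in 96-well plates exposed to compound for 48 hours at five concentrations. Here, GI50 denotes the concentration required for 50% inhibition of growth. The concentration for full growth arrest is given as TGI.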 Peptide text beside a SMILES is read from it. * marks the point of attachment. Fmoc = O=C(OCC1c2ccccc2-c2ccccc21)*; Boc = CC(C)(C)OC(=O)*

Tested on: NCI-H322M lung
Test: inhibition of tumour cell growth, NCI panel, 48 h

| SMILES | TGI | GI50 |
| --- | --- | --- |
| COc1ccc(S(=O)(=O)N/N=C/CN2C(=O)c3ccccc3C2=O)cc1 | > 100 µM |  |
| CC(C)(C)OC(=O)NCCCCC(NC(=O)C(Cc1c[nH]c2ccccc12)NC(=O)OCC1c2ccccc2-c2ccccc21)C(=O)O (stereo not given) (Fmoc-Trp-Lys(Boc)-OH; configuration not given here) | > 100 µM |  |
| O=C(CC(C(=O)c1cccs1)c1ccccc1)c1ccccc1O (stereo not given) | > 100 µM |  |
| O=C(N/N=C/c1cccc(O)c1)c1ccc(C(F)(F)F)nc1Nc1cccc(C(F)(F)F)c1 | 5.13 µM | 0.781 µM |
| Cc1nc2c(s/c(=N\N)n2-c2ccccc2)c(=O)n1C | > 100 µM |  |
| C[C@H](CCCOS(C)(=O)=O)[C@H]1CC[C@H]2[C@@H]3CC[C@@H]4C[C@H](OS(C)(=O)=O)CC[C@]4(C)[C@H]3CC[C@]12C |  | 2250 µM |
| CCOC(=O)c1c[nH]c2cc3c(cc2c1=O)CCS3 | > 100 µM |  |
| COc1ccc(OC)c(/C=C/C(=O)c2ccc3cc(OC)ccc3c2)c1 | 25.1 µM | 9.44 µM |
| COC(=O)c1c(OC(C)=O)ccc2c1c1cc3ccccc3c(OC(C)=O)c1n2C | > 100 µM |  |
| CC(=O)c1cccc(NC(=O)/C(=N\NC(=S)NN)C2C(=O)Nc3ccccc3S2=O)c1 (stereo not given) | > 100 µM |  |
| NC1=CN(Cc2ccccc2)C2=N/C(=C\c3ccco3)C(=O)N12 | > 100 µM |  |
| CCCCCCCCCCCCCCCC(N)c1ccccc1 (stereo not given) | 3.05 µM | 1.61 µM |
